The BET-seq Pho4 binding data (Le et al. 2018)
The other results are listed elsewhere or left out. These are noisy estimates, calculated here from bound and input reads.

Biological target: T1, Pho4 (S. cerevisiae) (UniProt P07270)
T1 sequence: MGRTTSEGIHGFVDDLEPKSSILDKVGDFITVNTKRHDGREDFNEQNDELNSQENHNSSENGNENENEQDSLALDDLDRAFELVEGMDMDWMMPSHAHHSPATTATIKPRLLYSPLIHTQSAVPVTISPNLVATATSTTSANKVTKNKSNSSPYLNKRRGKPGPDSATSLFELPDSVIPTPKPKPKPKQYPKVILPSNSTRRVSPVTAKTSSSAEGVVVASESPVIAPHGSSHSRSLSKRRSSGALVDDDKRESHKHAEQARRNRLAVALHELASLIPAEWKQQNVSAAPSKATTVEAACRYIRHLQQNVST
Test: relative binding free energy (BET-seq); higher = weaker binding
Conditions: reference: library average

Sequence | relative binding free energy
ATTTTCACGTGGATGC | 0.18 kcal/mol
GGCGGCACGTGCTTGA | 0.03 kcal/mol
TGTATCACGTGAGCCG | 0.38 kcal/mol
AGGCTCACGTGTGGCT | 0.3 kcal/mol
GTGGCCACGTGGCGGT | -0.15 kcal/mol
GTCATCACGTGTGAGG | 0.1 kcal/mol
AGGATCACGTGGGGTG | 0.06 kcal/mol
CGGAGCACGTGGTATT | -0.09 kcal/mol
TACTGCACGTGGGATT | -0.15 kcal/mol
GGGGTCACGTGGTTAA | 0.23 kcal/mol
AAAGTCACGTGCTTTG | -0.02 kcal/mol
GATGACACGTGATGGT | 0.21 kcal/mol
AGTAGCACGTGTTTAA | -0.17 kcal/mol
AACTGCACGTGGGGTT | -0.16 kcal/mol
TATTTCACGTGTCTAT | 0.26 kcal/mol
ATTGACACGTGAGGTC | 0.21 kcal/mol
TGTGACACGTGAGGCT | 0.17 kcal/mol
TTGTGCACGTGTGCGC | -0.04 kcal/mol
TTGTGCACGTGGAGCG | -0.09 kcal/mol
GGAGACACGTGGTGAG | -0.07 kcal/mol
CGTTACACGTGGTGTT | -0.03 kcal/mol
GTTAGCACGTGGCGGG | -0.13 kcal/mol
GTTGACACGTGTCTGG | -0.04 kcal/mol
GCGTTCACGTGTTGGG | 0.32 kcal/mol
GGCAGCACGTGGGTGC | -0.14 kcal/mol

Sequence | relative binding free energy
TTCATCACGTGTGTAG | 0.09 kcal/mol
TACGTCACGTGGGATT | -0.04 kcal/mol
AAGGGCACGTGTACTT | -0.07 kcal/mol
TTGTTCACGTGTTCGA | 0.14 kcal/mol
GTGCGCACGTGTAGGT | -0.01 kcal/mol
CGACGCACGTGGGTTG | -0.2 kcal/mol
TTAAGCACGTGTGTCG | -0.12 kcal/mol
TGTTCCACGTGTTGTA | 0.22 kcal/mol
GGTGTCACGTGGGCTT | 0.02 kcal/mol
GTGTTCACGTGATTGC | 0.34 kcal/mol
TCGTTCACGTGCTTGT | 0.01 kcal/mol
TGCATCACGTGTTTAG | 0.27 kcal/mol
GCGGCCACGTGAGGGT | 0.04 kcal/mol
GTTTTCACGTGGTTTG | 0.34 kcal/mol
TGTCGCACGTGTGGGC | -0.02 kcal/mol
ATTACCACGTGTGGCT | 0.18 kcal/mol
TGTGTCACGTGCAAAT | 0.12 kcal/mol
ACAGTCACGTGGCGGT | 0.15 kcal/mol
TGTCGCACGTGATGCG | 0 kcal/mol
GGGTGCACGTGACAGG | 0.03 kcal/mol
TACGTCACGTGGGGTA | -0.08 kcal/mol
TGCTTCACGTGCTGGG | 0.21 kcal/mol
GGTAGCACGTGTGGTG | -0.01 kcal/mol
GTCATCACGTGTATGT | 0.2 kcal/mol
CTGGTCACGTGGGTAA | -0.08 kcal/mol

Sequence | relative binding free energy
TCTGTCACGTGGGGCG | -0.06 kcal/mol
AAATTCACGTGGCTGG | 0.41 kcal/mol
GTGCTCACGTGTCGTG | 0.1 kcal/mol
CTTTACACGTGTGGCG | 0.15 kcal/mol
GAGCGCACGTGTGAGT | 0 kcal/mol
TTTAACACGTGTTTGC | -0.02 kcal/mol
TTGTACACGTGAAGTT | 0.26 kcal/mol
TTAAACACGTGTGGTC | -0.1 kcal/mol
GAGGTCACGTGGGGCG | 0 kcal/mol
GGAGACACGTGGGATT | 0.08 kcal/mol
TAATCCACGTGCGGTG | 0.28 kcal/mol
ATTCTCACGTGGATTG | 0.2 kcal/mol
TGATTCACGTGAGGAA | 0.38 kcal/mol
ATTATCACGTGGGGCC | 0.11 kcal/mol
CGCGGCACGTGTGTTG | -0.16 kcal/mol
GTATTCACGTGTTCGT | 0.18 kcal/mol
TTTAGCACGTGTTCAG | 0.14 kcal/mol
TATGACACGTGGGTAG | -0.21 kcal/mol
TTTTTCACGTGGGATG | 0.31 kcal/mol
TTGTTCACGTGCTCTG | 0.14 kcal/mol
GTTGGCACGTGTTGGA | 0.02 kcal/mol
GAGTGCACGTGGGAAA | 0.15 kcal/mol
TTGTACACGTGAACGT | 0.2 kcal/mol
